# Data: PubChem BioAssay (NCI)
# Values joined by “and” are separate entries in the source; they are usually repeats but may differ in a detail not shown here. Equal entries are not always repeated.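 Protocol summary: plate cells (96-well), add compound at 5 concentrations, incubate 48 h, interpolate endpoints linearly. GI50 = concentration required for 50% inhibition of growth. TGI is the concentration that stops growth completely.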 Numbered stars: 1 amine (or outer) side, 2 acyl side, 3 side chain; on linkers, the order of the positions; unused ones are H or OH. Bridge positions count the residues as written; N and C are the ends. Square brackets hold non-standard residues; d marks the D form. Peptide text beside a SMILES is read from it. ξ: configuration not given here. X32 = CC[C@H](C)[C@@H](N[*:1])[C@@H](O)CC(=O)O[C@H](C(=O)[C@H](C)C(=O)[*:2])C(C)C; NMeY = CN[C@@H](Cc1ccc(O)cc1)C(=O)O; dNMeL = CN[C@H](CC(C)C)C(=O)O; ξΔPro = O=C(O)C1C=CCN1
# Test system: NCI-H322M lung
# Experiment: growth of human tumour cells (NCI), 48 h
Compound,TGI,GI50
C[C@]12CC[C@H]3[C@@H](CC[C@]4(O)C[C@@H](O)CC[C@]34CO)[C@@]1(O)CC[C@@H]2C1=CC(=O)OC1,15.4 µM,–
CC1CN=C(c2ccc(-c3nc(-c4ccc(C5=NCC(C)N5)cc4)nc(N(C)C)n3)cc2)N1 (configuration not stated),3.94 µM,–
COc1cc(C)cc2c(-c3c(O)cc(O)c4c3C[C@H](C)N[C@H]4C)cc(-c3cc(-c4c(O)cc(O)c5c4C[C@H](C)N[C@H]5C)c4cc(C)cc(OC)c4c3O)c(O)c12,> 100 µM,–
Cc1cccc(N=C2NC(=O)C(CC(=O)Nc3ccc(C)cc3C)S2)c1 (configuration not stated),> 100 µM,–
CC[C@H](C)[C@H]1NC(=O)[C@@H](NC(=O)[C@@H](CC(C)C)N(C)C(=O)C2C=CCN2)[C@@H](C)OC(=O)[C@H](Cc2ccc(OC)cc2)N(C)C(=O)[C@@H]2CCCN2C(=O)[C@H](CC(C)C)NC(=O)[C@@H](C)C(=O)[C@H](C(C)C)OC(=O)C[C@@H]1O (some centres not stated) (H-[ξΔPro][dNMeL]T[X32]LP[NMeY](Me); ester 3-C),0.0983 µM,–
C/C=C(/C)c1cnc(CC(C)C)c(=O)[nH]1,> 100 µM,–
C[C@]12CC[C@@H](OC(=O)N(CCCl)N=O)C[C@@H]1CC[C@@H]1[C@@H]2CC[C@]2(C)C(=O)CC[C@@H]12,22.2 µM,6.38 µM
CCOC(=O)Cc1csc(N=Nc2c(O)[nH]c3ccccc23)n1,> 100 µM,–
COc1ccc(/C=C\c2cc(OC)c(OC)c(OC)c2)c(NS(=O)(=O)c2ccc(Cl)cc2)c1O,> 100 µM,0.485 µM
Cc1cn(CCOCCOC(=O)NC(CCCNC(N)=O)C(=O)O)c(=O)[nH]c1=O (configuration not stated),> 100 µM,–
COC1(OC)C=CC(=O)C=C1,31.3 µM,–
Cc1cc(=O)oc2cc(OC(=O)N(CCCl)CCCl)ccc12,> 100 µM,–
C=CCOC1(CC=C)C(=O)OC2C(O)COC21O (configuration not stated),> 100 µM,–
CC(=O)c1cccc(-c2cccc(-c3ccn(CCN4CCOCC4)n3)c2)c1,> 20 µM,> 20 µM
C=CCc1ccccc1C1CC2(C(=O)OC)OC1C(C(=O)OC)=C2C(=O)OC (configuration not stated),> 10 µM,–
COc1cc(/C=C2\CC3C4CC=C5C[C@@H](O)CC[C@]5(C)C4CC[C@]3(C)C2=O)ccc1OCCCn1ccnc1 (some centres not stated),50.8 µM,24.4 µM
Cc1ccc(NC2=N/C(=C/c3ccco3)C(Cl)=N2)cc1,> 100 µM,–
CC(=O)c1cc(-c2ccccc2N)n(-c2ccc3c(c2)OCO3)c1C,> 100 µM,0.551 µM
O=C(O)CCSC1=NCCN1,> 100 µM,–
COC(=O)c1cc(-c2ccc(OC)cc2)[nH]c1N/N=C/c1c(Cl)cccc1Cl,30 µM,1.23 µM
COC(=O)[C@H]1N[C@@H](C(=O)OC)C23CCC[C@H]2CC[C@]1(C(OC)OC)C3,> 100 µM,–
COc1cc2c(cc1OC)C(=O)/C(=C/c1ccc(O)cc1)CC2,> 10 µM,–
COc1ccccc1NC(=S)N/N=C/c1ccccn1,> 31.6 µM,–
COC(=O)c1cc(C)ccc1C1CN=NC12Cc1c(C)cc(C)cc1C2=O (configuration not stated),> 100 µM,–

Compound,TGI,GI50
Clc1ccc2c(c1)C(N1CCNCC1)=Nc1ccccc1O2,18 µM,5.16 µM
Oc1c(Cl)cc(Cl)cc1Sc1cc(Cl)cc(Cl)c1O,17 µM and 10.3 µM,3.36 µM and 2.73 µM
COC(=O)[C@]1(C)C(OC)=CC(=O)C2C1[C@H]1CCC[C@@H]21 (some centres not stated),> 100 µM,–
O=C(Nc1ccc(Br)cc1)Nc1nn(C(=O)Nc2ccc(Br)cc2)c2ccccc12,> 100 µM,> 100 µM
COC(=O)C(CC(=O)c1c[nH]c2ccccc12)c1c[nH]c2ccccc12 (configuration not stated),49.2 µM,–
COc1cc(S(=O)(=O)Nc2ccc(-c3csc(/N=C\c4ccccc4)n3)cc2)ccc1Cl,> 100 µM,–
CC(C)(C)n1cc(-c2ccnc(NCCCNS(=O)(=O)c3ccc(Br)cc3)c2)c(-c2cccc(O)c2)n1,5.38 µM,2.31 µM
COc1cc2c(c(OC)c1)C(=O)O[C@H](C)CCCC/C=C/C2,> 68.9 µM,–
Clc1ccc(-c2c(C3=NCCN3)nnn2-c2ccccc2)cc1,> 100 µM,–
O=c1cc(-c2ccccn2)[nH]c2cc(F)ccc12,> 100 µM,–
CC1(C)[C@@H](OC(N)=O)C=C[C@]2(CO)[C@H]3CC[C@]4(C)[C@@H](c5ccc(=O)oc5)[C@@H](Cl)C[C@]4(O)C3=CC[C@@H]12,0.0133 µM,0.00226 µM
COc1cc2c3c(ncc2c(OC)c1OC)-c1cc2c(cc1C3)OCO2,55.9 µM,17.7 µM
CCN(CC)CCOc1c(OC)c(Br)cc2c(C)c(C(=O)OC)oc12,12.4 µM,6.19 µM
COc1cc2c(c(OC)c1OC)-c1ccc(O)c(=O)cc1[C@@H](NC(C)=O)CC2,> 100 µM,4.06 µM
CCCCCCCCCCCCCC(=O)NCC(OCC)OCC,> 100 µM,–
COC(=O)[C@@H]1C=C[C@H](NC(C)=O)C1,> 100 µM,–
COc1ccc2ccccc2c1CN1CCOCCOCCN(Cc2c(OC)ccc3ccccc23)CCOCCOCC1,> 100 µM,–
CS(=O)(=O)[O-].CS(=O)(=O)[O-].NC1CCCCC1N.[Pt+4] (configuration not stated),> 100 µM,> 100 µM
O=[N+]([O-])c1cc(F)ccc1Sc1ccccc1,> 10 µM,–
COc1cc(/C=C/c2ccc(OC)c(OC)c2OC)cc(OC)c1OC,68 µM,–
Cc1ccc2sc3ccc(N)cc3c(=O)c2c1,> 100 µM,–
CC1=CC[C@](C)(O)[C@@]2(C)CC[C@H]3C(=C(C)C)C(=O)C[C@]3(C)C[C@H]12,> 50 µM,–
O=C(O)COc1cc(-c2ccccc2)nc2ccccc12,> 100 µM,–
